For 172 sequences, binding signal results are on record in article PMC10668032.

The list shows a part of the results. At the low end of the ranking the order means little.

For this experiment, the target named is SIX1-Q177R homeodomain (UniProt Q15475). The experiment in a line: universal protein binding microarray. The conditions noted are these: Universal all-10-mer PBM (8x60K, AMADID 030236), 300 nM GST-tagged protein, Alexa Fluor 488 anti-GST; buffer, salt, pH and temperature not stated; high values mean tight binding; most listed sequences are background and not binding sites; double strand, one strand shown.
As for GGCATGTA, the binding signal was -0.161 E-score. Then AAGTCTAC, with -0.0428 E-score; and ACGGAATG, with -0.202 E-score. In the case of CTACGCAG, the binding signal stood at 0.00543 E-score. The same measure for CGTTCCGC: 0.148 E-score; for CTGACGTA: -0.103 E-score.

As to ACTGCTCA, the binding signal was -0.207 E-score. The same measure for ACTACAGC: 0.0365 E-score; for CGGACTTA: -0.264 E-score. Consider CTATGAAC, for which the binding signal was 0.0259 E-score. Then GTCTCCTA, with 0.0363 E-score; and AATCGAGA, with -0.124 E-score. For the sequence CAGGTAAA, the binding signal is -0.0647 E-score. The same measure for GCATACGC: 0.0349 E-score. Then GTGTCAAA, with 0.453 E-score; and CCTCCGAG, with 0.137 E-score; and AAAGGGGA, with -0.113 E-score. As for CTTGTAGC, the binding signal is -0.151 E-score.

In the case of CATCCCGA, the binding signal worked out at 0.0181 E-score.

For ATGCGATA, the binding signal was -0.086 E-score. Then AGGTTAAG, with 0.0807 E-score; and CGGGTGGC, with 0.178 E-score.

In the case of CTTTTCCA, the binding signal is -0.238 E-score. The same measure for CATTCGGC: -0.0762 E-score. The same measure for CTTGATTC: -0.0262 E-score; for ACTACTAA: 0.0176 E-score. Then GCAGGGAA, with -0.227 E-score. Take AAGCTCTC: the binding signal was -0.185 E-score.

ACTGTATC: the binding signal came to 0.0219 E-score. Then CGCGCAGC, with 0.0385 E-score; and GCTATACA, with 0.115 E-score; and CTTAGCGC, with -0.072 E-score. The same measure for CATCTCCA: -0.143 E-score; for CTATTGCA: 0.0449 E-score.

With CGCTAATC, the binding signal was -0.0101 E-score. For the sequence CGCTTCAC, the binding signal came to 0.00131 E-score. On to ACTCTGAT, for which the binding signal is 0.0644 E-score.

For the sequence AACACTCC, the binding signal turned out to be 0.379 E-score. On to CATCTGCA, for which the binding signal is -0.176 E-score. As to GAAGGACC, the binding signal is -0.176 E-score. As for CCGCTCGC, the binding signal was -0.04 E-score. Then CCAGAAAC, with 0.0863 E-score; and AAACCAGG, with 0.0533 E-score; and CTATGCAC, with 0.0665 E-score.

With CAGTGGGA, the binding signal amounted to 0.11 E-score. Consider CGCGCATA, for which the binding signal was -0.153 E-score. The same measure for AACTAGAG: -0.0362 E-score; for ACTCTGGC: -0.0466 E-score. The same measure for AAGAGTTA: 0.172 E-score; for CGGCAGAG: -0.0562 E-score. Then AAAGAATG, with -0.22 E-score; and CTAGTTCC, with 0.0778 E-score. On to CCGGGGAG, for which the binding signal is 0.0723 E-score. On to ATGGATTA, for which the binding signal was -0.0755 E-score. Turning to GACATCGA, the binding signal was -0.238 E-score. The same measure for AACTAGTT: -0.395 E-score; for ACTCAAGG: -0.0829 E-score; for CACGCCTC: 0.177 E-score.

As to GGTCTAAA, the binding signal stood at 0.000265 E-score. The same measure for GGCTTCCA: -0.268 E-score; for GGATACTA: 0.152 E-score; for ATCTAAGC: -0.142 E-score. GTTTCGCA: the binding signal is -0.116 E-score.

For ATATAGGG, the binding signal amounted to 0.0595 E-score. The same measure for ACTGAATG: -0.0906 E-score; for ACGCATCT: 0.0591 E-score. Consider GGATCCAA, for which the binding signal was determined as 0.201 E-score. The same measure for ATCTATCG: -0.263 E-score; for CGTAGTCC: -0.196 E-score; for CTACACGC: 0.403 E-score.

Regarding ATGTGAGC, the binding signal is -0.161 E-score. For the sequence GAAGGCCA, the binding signal was -0.218 E-score. The same measure for AAGCTTCA: -0.167 E-score; for ATGAGAAG: -0.056 E-score; for CAGCTAGA: -0.0892 E-score. The same measure for GTCCTTGA: -0.0394 E-score; for CACTAGAA: -0.00396 E-score. Then AATACAAG, with -0.148 E-score; and ATCAAACC, with 0.0868 E-score. For the sequence ACATCAGG, the binding signal was -0.144 E-score. On to GGCCGCTA, for which the binding signal was -0.139 E-score. Then CTATCACA, with 0.147 E-score; and AGCCACCG, with -0.0471 E-score. Regarding ACAAGATC, the binding signal turned out to be 0.0385 E-score. The same measure for GTCCTCAA: -0.252 E-score; for TCACGTCA: -0.144 E-score; for CCCTGAGG: 0.177 E-score. Then CACCGAAA, with 0.329 E-score; and TCCTTCCA, with -0.00067 E-score. The same measure for GGTGAAAA: 0.0206 E-score; for CGCATCTC: 0.0235 E-score. On to ATAAAGCA, for which the binding signal was -0.173 E-score. For the sequence GTGTGGCA, the binding signal was found to be 0.246 E-score. The same measure for CCATCCTC: -0.0125 E-score. For the sequence AGGCACAG, the binding signal is -0.282 E-score. As for CAGTTATA, the binding signal is -0.0411 E-score.

In the case of GAGACGGC, the binding signal is -0.232 E-score. Regarding ATCCTATG, the binding signal is -0.0642 E-score.

Take CAGCAATG: the binding signal was -0.03 E-score. Then AGGGCAAC, with -0.0606 E-score; and CTCCAACC, with 0.0708 E-score; and ATCCCCGG, with 0.174 E-score. Then ATACGGGC, with -0.0639 E-score; and AAAAACTT, with -0.282 E-score; and AGTGCTTA, with -0.0939 E-score. The same measure for AAAATAAG: -0.163 E-score.

For the sequence AGTGTTAG, the binding signal stood at 0.394 E-score. For the sequence TATTAGCA, the binding signal came to 0.074 E-score. Then AGACGCGG, with 0.0452 E-score; and CTGTTTAC, with -0.0823 E-score; and TTCCGAAA, with -0.15 E-score. The same measure for ACCATAGG: 0.0594 E-score; for AAAACTAG: -0.0471 E-score. On to ATAGGATA, for which the binding signal was 0.122 E-score. The same measure for CTCGACTC: 0.1 E-score; for AGTATGGC: -0.0453 E-score; for AGCTGTGA: -0.0533 E-score. The same measure for AATCATTC: -0.217 E-score; for ATGTTTCA: -0.303 E-score; for ATCGGAAT: -0.116 E-score. The same measure for CTTACTAC: -0.0879 E-score; for ACTCTAGC: 0.0247 E-score. In the case of AAATGTTC, the binding signal is -0.151 E-score. The same measure for TACTTCCA: -0.101 E-score; for ATTTCAAA: -0.205 E-score; for CTGCCGGA: -0.234 E-score.

In the case of CACGTGAG, the binding signal came to 0.033 E-score. Then CGAATGAC, with 0.198 E-score; and GACAGACC, with -0.0795 E-score. Then GTCCGACA, with 0.217 E-score. Then ACTCCAAA, with 0.0954 E-score; and ATTTCGGA, with -0.224 E-score; and CGGGTGCA, with 0.238 E-score. Take GGGTATTA: the binding signal is 0.161 E-score. Then AACCTCGC, with -0.084 E-score; and CTTGGTAA, with 0.0759 E-score. Then CTGTCCTC, with -0.136 E-score. Then TGGTTGAA, with -0.0727 E-score; and ATCCATAA, with -0.0611 E-score.

Regarding ATGTTTAC, the binding signal was 0.0247 E-score. As to CTGTGCCA, the binding signal was -0.0907 E-score. The same measure for CTGGGTTA: 0.0728 E-score; for CCAAGAGA: 0.0328 E-score; for GGCAAGTA: -0.0555 E-score. Then ACGCTTAC, with 0.0323 E-score; and GTGTCACA, with 0.462 E-score; and AGAGCGAG, with -0.144 E-score.

Consider GGGTACCC, for which the binding signal turned out to be 0.234 E-score. Then GTGTGGTA, with 0.265 E-score; and CTTCCTGA, with -0.194 E-score. The same measure for GAAGTCTC: -0.341 E-score; for AGGCTCAC: -0.0358 E-score. The same measure for CTTAGGAA: 0.0513 E-score. On to CGGCCCCC, for which the binding signal was -0.0815 E-score. Then CGTGCATC, with 0.0284 E-score; and AATGAACT, with -0.206 E-score; and CAAATCGG, with -0.0862 E-score.

Turning to ATCATATA, the binding signal is -0.0383 E-score. Then CGCCCTTA, with -0.155 E-score.

Regarding AAGACACA, the binding signal was 0.174 E-score.

Regarding GGGTGCCA, the binding signal turned out to be 0.2 E-score. Turning to CTATTTCC, the binding signal is -0.148 E-score.

Consider GATAGGGC, for which the binding signal was -0.27 E-score.

On to ATCCGACG, for which the binding signal is 0.0169 E-score. Then AGAATTGC, with -0.242 E-score; and ACCGGTGG, with -0.00441 E-score. Take ATGACGGC: the binding signal was -0.316 E-score. Then GGTAGTGA, with 0.103 E-score; and GGAAGGAA, with -0.0414 E-score. The same measure for AGGCAACT: -0.151 E-score; for TATCGATA: -0.0766 E-score. Then GCCTCCGC, with 0.0572 E-score.
